Measurements: the RNAGym collection of RNA variant scans (doi:10.7554/elife.90254)
The source gives no read counts; variants with many changes may rest on few reads.

B1: LINE1-mini (parent)
chain: GGCAGAGCUCAACACAGCGUGGCAAAGUGGCUGUGGCUAGACUGCC

Variants of: B1
Assay: self-cleavage, relative activity (ratio to wild type); higher = more cleavage; in vitro, sequencing; the parent is a self-cleaving ribozyme

With G1U A39U C46G as the variant, how does the self-cleavage read?
Its self-cleavage is 0.49.

Which self-cleavage does the source give for A12G A14U C15A C42U here?
The self-cleavage was 0.07.

With C8A A14G C15U as the variant, how does the self-cleavage read?
The self-cleavage was 0.16.

With U9G A14C G19C as the variant, how does the self-cleavage read?
Its self-cleavage is 0.02.

With G7U A16C U34A U38C as the variant, how does the self-cleavage read?
The self-cleavage was 0.02.

For G2U A14G G17A G35A G36U, which self-cleavage is on record?
The self-cleavage was 0.05.

For G19C C23G G27C G30A C37A, which self-cleavage is on record?
The self-cleavage was 0.01.

With G27C G33U G40A C46A as the variant, how does the self-cleavage read?
The self-cleavage was 0.05.

With C3A C13A C31A as the variant, how does the self-cleavage read?
Its self-cleavage is 0.08.

With A12U G17U U32G as the variant, how does the self-cleavage read?
Its self-cleavage is 0.05.

For C8A C10A U20C A25U A26C G35U A41U, which self-cleavage is on record?
Its self-cleavage is 0.

Which self-cleavage does the source give for G17A U43C G44A here?
The self-cleavage was 0.02.

With U9C C10U C23A C42G as the variant, how does the self-cleavage read?
The self-cleavage was 0.01.

Which self-cleavage does the source give for C8A G29U C37A here?
The self-cleavage was 0.06.

With C3G G5A G7A C45A as the variant, how does the self-cleavage read?
Its self-cleavage is 0.25.

Which self-cleavage does the source give for G7C A26G U32C A39U G40A here?
Its self-cleavage is 0.15.

For G2U A6C A12C G17U, which self-cleavage is on record?
The self-cleavage was 0.02.

With C13A A26U G30C C31U A39G as the variant, how does the self-cleavage read?
Its self-cleavage is 0.19.

Which self-cleavage does the source give for C3U A14C A16G here?
The self-cleavage was 0.09.

For G1A A4U C13G C31U G35A A41U, which self-cleavage is on record?
The self-cleavage was 0.17.

For C3U C15A G17C C31U A39G A41U, which self-cleavage is on record?
The self-cleavage was 0.02.

Which self-cleavage does the source give for A14G U32G C45A here?
The self-cleavage was 0.02.

With U9C G19U U20C G29A G40A as the variant, how does the self-cleavage read?
Its self-cleavage is 0.03.

For G1C C3U C8U C13U C15A G21A A26C, which self-cleavage is on record?
The self-cleavage was 0.11.

For G21C A41U C42U, which self-cleavage is on record?
The self-cleavage was 0.14.

For U32A C42G C46U, which self-cleavage is on record?
Its self-cleavage is 0.

Which self-cleavage does the source give for G27A C31G G40C here?
Its self-cleavage is 0.05.

For C3U C10A C23U G35C, which self-cleavage is on record?
Its self-cleavage is 0.04.

For A6U C15U G19U G36U, which self-cleavage is on record?
The self-cleavage was 0.19.

For U9G U34G U43A, which self-cleavage is on record?
Its self-cleavage is 0.03.

Which self-cleavage does the source give for A4U U34C U38G A41G here?
Its self-cleavage is 0.04.

For G21U G22A C23U U38A G40C, which self-cleavage is on record?
Its self-cleavage is 0.09.

With G2A G17U C37U U38C A39G G40C as the variant, how does the self-cleavage read?
The self-cleavage was 0.04.

For A6C C13U C42U, which self-cleavage is on record?
Its self-cleavage is 0.21.

With C3A C10G C15A U20A A25C as the variant, how does the self-cleavage read?
Its self-cleavage is 0.02.

Which self-cleavage does the source give for G19A G21A G22A C23G A26U here?
The self-cleavage was 0.63.

Which self-cleavage does the source give for G22U A26C G29A here?
Its self-cleavage is 0.1.

Which self-cleavage does the source give for G1U G5U G21U U32C here?
Its self-cleavage is 0.11.

For A12C A14G C37U, which self-cleavage is on record?
The self-cleavage was 0.

Which self-cleavage does the source give for A6G U28C U43A here?
Its self-cleavage is 0.04.

Which self-cleavage does the source give for G2U G7A C13G A25C here?
The self-cleavage was 0.04.

Which self-cleavage does the source give for C3U C10A C31U G40C here?
The self-cleavage was 0.

For U9C A16U C31A C37U, which self-cleavage is on record?
Its self-cleavage is 0.01.

With G1C G5A U9A A25C U28G G30U C45A as the variant, how does the self-cleavage read?
Its self-cleavage is 0.03.

Which self-cleavage does the source give for G30A C31G U34G here?
Its self-cleavage is 0.03.

Which self-cleavage does the source give for A11C G22U A24U C46U here?
The self-cleavage was 0.01.

Which self-cleavage does the source give for A11U U32A A41G here?
Its self-cleavage is 0.01.

With A6G A14C A24C as the variant, how does the self-cleavage read?
The self-cleavage was 0.

With G5A C15U G27U U43C as the variant, how does the self-cleavage read?
Its self-cleavage is 0.11.

For G1A A4G C15U, which self-cleavage is on record?
Its self-cleavage is 0.12.

With G7U C15A A24G A39C as the variant, how does the self-cleavage read?
The self-cleavage was 0.07.

With G5A C13A G29A as the variant, how does the self-cleavage read?
The self-cleavage was 0.07.

Which self-cleavage does the source give for G1U C23U U38G C42A C45U here?
Its self-cleavage is 0.03.

Which self-cleavage does the source give for A6C U20C G29A G35U G36A C46U here?
Its self-cleavage is 0.06.

Which self-cleavage does the source give for C10U G36A C42G U43A here?
The self-cleavage was 0.01.

With C18U G30A G40A G44A as the variant, how does the self-cleavage read?
The self-cleavage was 0.01.

For A4C U9A G19A G29U C31G G36C, which self-cleavage is on record?
The self-cleavage was 0.08.

For G2A G5U A11C A14U G30A C37U A39U, which self-cleavage is on record?
Its self-cleavage is 0.03.

Which self-cleavage does the source give for G2U G35U G36U here?
The self-cleavage was 0.62.

With A11U C15A G36C A39C as the variant, how does the self-cleavage read?
Its self-cleavage is 0.02.

For G5U G17U G40U U43C, which self-cleavage is on record?
The self-cleavage was 0.04.

For A25G A26U G33C U34G C45A, which self-cleavage is on record?
The self-cleavage was 0.01.

With C10G C13U U20G A24U C37A as the variant, how does the self-cleavage read?
Its self-cleavage is 0.

With C10U U20G G30C U32C as the variant, how does the self-cleavage read?
The self-cleavage was 0.03.

For A4C G7U C18U C37A, which self-cleavage is on record?
The self-cleavage was 0.02.

Which self-cleavage does the source give for C3G A16G U32A here?
Its self-cleavage is 0.04.

Which self-cleavage does the source give for G7A C18A G19U U20C U34C here?
The self-cleavage was 0.11.

Which self-cleavage does the source give for C15U A39C C42A here?
The self-cleavage was 0.04.

For A16U A26U U43G C46A, which self-cleavage is on record?
Its self-cleavage is 0.02.

For A14C C15U U28C C37A G40C, which self-cleavage is on record?
The self-cleavage was 0.01.

With G2A U9A C15A A16G C23A G36A as the variant, how does the self-cleavage read?
Its self-cleavage is 0.22.

For C8A G22A C23U U38G A39U, which self-cleavage is on record?
The self-cleavage was 0.02.

For U9A C15A U38C G40A C46U, which self-cleavage is on record?
Its self-cleavage is 0.08.

For C8A G17U A26U G35U, which self-cleavage is on record?
Its self-cleavage is 0.18.

With A4U C15A A16G C18G G22C as the variant, how does the self-cleavage read?
The self-cleavage was 0.03.

Which self-cleavage does the source give for G17C U28A C46U here?
Its self-cleavage is 0.08.

With A16G G19C G40A as the variant, how does the self-cleavage read?
The self-cleavage was 0.02.

With C8A G22A G27C U32C C46G as the variant, how does the self-cleavage read?
Its self-cleavage is 0.06.

With G22C G29C G36U C37G as the variant, how does the self-cleavage read?
Its self-cleavage is 0.

Which self-cleavage does the source give for G2C A4C C23U C37G here?
The self-cleavage was 0.04.

For C8A G21C A24C U28A, which self-cleavage is on record?
The self-cleavage was 0.07.

For G7A C42G C45G, which self-cleavage is on record?
The self-cleavage was 0.04.

Which self-cleavage does the source give for A16G G21C U32G A39U G44A here?
The self-cleavage was 0.01.

For C18G G27U G29A, which self-cleavage is on record?
The self-cleavage was 0.28.
